Measurements taken from PMC6077249, “Insights into Centromere DNA Bending Revealed by the Cryo-EM Structure of the Core Centromere Binding Factor 3 with Ndc10” (Cell Reports, 2017).
Blank lines part the entries; values can stand above or below the binder they belong to.

Legend:
[1] = target: T1, Ndc10 D1-2 (domains 1 and 2 of Ndc10, residues 1–554) (S. cerevisiae, UniProt P32504 1-554); experiment: cryo-EM structure; purified CBF3CCΔN and Ndc10 D1-2 mixed at 1:1 molar ratio, 4°C 1 hr, co-eluted on Superose 6 Increase; 0.15 mg/mL on grids; 4.2 Å map, 4.4 Å focused refinement; conditions: both partners purified
T1 construct: Ndc10, S. cerevisiae, domains 1 and 2, residues 1-554, cloned from yeast genomic DNA; also called monomeric construct of Ndc10; source: S. cerevisiae (pRS426, same expression system), purified (StrepTrap HP, Mono Q, Superdex 200)
T1 sequence (looked up): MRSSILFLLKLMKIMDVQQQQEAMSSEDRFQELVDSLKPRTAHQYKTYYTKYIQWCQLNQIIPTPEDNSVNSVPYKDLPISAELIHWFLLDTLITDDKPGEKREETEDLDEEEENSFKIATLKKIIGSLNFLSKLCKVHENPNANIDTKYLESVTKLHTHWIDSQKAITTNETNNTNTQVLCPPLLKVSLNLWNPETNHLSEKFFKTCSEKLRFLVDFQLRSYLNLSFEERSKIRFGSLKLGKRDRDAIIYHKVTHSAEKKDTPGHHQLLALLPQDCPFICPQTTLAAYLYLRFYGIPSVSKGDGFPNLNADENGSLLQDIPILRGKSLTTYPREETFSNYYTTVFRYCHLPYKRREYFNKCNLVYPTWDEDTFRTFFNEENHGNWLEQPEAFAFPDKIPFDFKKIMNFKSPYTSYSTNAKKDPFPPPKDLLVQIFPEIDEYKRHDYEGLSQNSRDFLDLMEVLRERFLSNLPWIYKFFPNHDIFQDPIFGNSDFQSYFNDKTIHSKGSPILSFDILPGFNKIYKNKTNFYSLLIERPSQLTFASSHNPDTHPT

[2] = target: the molecule itself; experiment: cryo-EM structure; CBF3CCΔN co-expressed in S. cerevisiae and co-purified; 0.12 and 0.24 mg/ml on UltrAuFoil grids; 3.7 Å map; buffer 15 mM Tris pH 8.0, 200 mM NaCl, 2 mM DTT

- binding result [1]: binds
B1: Ctf13 (natural protein)
chain: not shown
notes: Ctf13, S. cerevisiae F box / LRR protein

B2: Cep3ΔN (N-terminally truncated Cep3, […], lacking the Zn2Cys6 domain) (domain or fragment)
chain: not shown
notes: Cep3, S. cerevisiae, […] (Zn2Cys6 domain removed); Homodimer; 'proximal' and 'distal' monomers in the CBF3 core complex; also called (Cep3ΔN)2
- binding result [2]: binds

- binding result [1]: binds
B3: Skp1 (natural protein)
chain: not shown
notes: Skp1, S. cerevisiae
